Measurements published in the supplement of paper PMC12217912.
This is one part of the list. The full chains were built here from the parent and the listed change. Values near 0.05 are background.

B1: TEV protease; numbered along this chain (parent)
chain: MGESLFKGPRDYNPISSSICHLTNESDGHTTSLYGIGFGPFIITNKHLFRRNNGTLVVQSLHGVFKVKDTTTLQQHLVDGRDMIIIRMPKDFPPFPQKLKFREPQREERICLVTTNFQTKSMSSMVSDTSCTFPSGDGIFWKHWIQTKDGQCGSPLVSTRDGFIVGIHSASNFTNTNNYFTSVPKNFMELLTNQEAQQWVSGWRLNADSVLWGGHKVFMVKPEEPFQPVKEATQL

Variants of: B1
Assay: raw area under fraction-flipped curve 0-4 h after induction (AUC4h, not background-subtracted), DNA-recorder readout of cleavage of the substrate (dimensionless); higher = more cleavage of the substrate by the protease variant
Details: temperature: 34 °C; time window: 0-4 h after rhamnose induction
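Note: Bxb1 expression induced with 0.2% (w/v) L-rhamnose at OD600 near 0.5, cultures sampled hourly, flipped fraction per protease–substrate barcode pair counted by paired-end Illumina sequencing.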

Variant | area with substrate ENLYFQA | area with substrate ENLYFQD | area with substrate ENLYFQG | area with substrate ENLYFQI | area with substrate ENLYFQK | area with substrate ENLYFQL | area with substrate ENLYFQM | area with substrate ENLYFQN | area with substrate ENLYFQP | area with substrate ENLYFQQ | area with substrate ENLYFQR | area with substrate ENLYFQS | area with substrate ENLYFQT | area with substrate ENLYFQV | area with substrate ENLYFQC | area with substrate ENLYFQH | area with substrate ENLYFQW | area with substrate ENLYFQY | area with substrate ENLYFQF | area with substrate ENLYFQE
MGESLFKGPRDYNPISSSICHLTNESDGHTTSLYGIGFGPFIITNKHLFRRNNGTLVVQSLHGVFKVKDTTTLQQHLVDGRDMIIIRMPKDFPPFPQKLKFREPQREERICLVTTNFQTKSMSSMVSDTSCTFPSGDGIFWKHWIQTKDGQCGSPLVSTRDGFHVGIHSASNFTNTNNYFTSVPKNFMELLTNQEAQQWVSGWRLNADSVLWGGHKVFMVKPEEPFQPVKEATQL [I164H] | 0.0478 | 0.0373 | 0.0531 | 0.0556 | 0.0449 | 0.0556 | 0.0718 | 0.0719 | 0.0361 | 0.0253 | 0.0573 | 0.0536 | 0.0604 | 0.0424 | – | – | – | – | – | –
MGESLFKGPRDYNPISSSICHLTNESDGHTTSLYGIGFGPFIITNKHLFRRNNGTLVVQSLHGVFKVKDTTTLQQHLVDGRDMIIIRMPKDFPPFPQKLKFREPQREERICLVTTNFQTKSMSSMVSDTSCTFPSGDGIFWKHWIQTKDGHCGSPLVSTRDGFIVGIHSASNFTNTNNYFTSVPKNFMELLTNQEAQQWVSGWRLNADSVLWGGHKVFMVKPEEPFQPVKEATQL [Q151H] | 0.0862 | – | 0.0987 | 0.0416 | 0.0517 | 0.0547 | – | 0.0662 | 0.0417 | – | 0.0952 | 0.0895 | – | 0.067 | 0.0956 | 0.0798 | 0.0577 | – | – | –
MGESLFKGPRDYNPISSSICHLTNESDGHTTSLYGIGFGPFIITNFHLFRRNNGTLVVQSLHGVFKVKDTTTLQQHLVDGRDMIIIRMPKDFPPFPQKLKFREPQREERICLVTTNFQTKSMSSMVSDTSCTFPSGDGIFWKHWIQTKDGQCGSPLVSTRDGFIVGIHSASNFTNTNNYFTSVPKNFMELLTNQEAQQWVSGWRLNADSVLWGGHKVFMVKPEEPFQPVKEATQL [K46F] | 0.0453 | 0.0466 | – | – | 0.0613 | 0.0655 | – | 0.0585 | – | 0.0596 | 0.0442 | 0.071 | 0.0481 | – | 0.0518 | – | 0.0502 | 0.0498 | – | –
MGESLFKGPRDYNPISSSICHLTNESDGHTTSLYGIGFGPFIITNKHLFRRNNGTLVVQSLHGVFKVKDTTTLQQHLVDGRDMIIIRMPKDFPDFPQKLKFREPQREERICLVTTNFQTKSMSSMVSDTSCTFPSGDGIFWKHWIQTKDGQCGSPLVSTRDGFIVGIHSASNFTNTNNYFTSVPKNFMELLTNQEAQQWVSGWRLNADSVLWGGHKVFMVKPEEPFQPVKEATQL [P94D] | 0.173 | – | – | – | 0.0648 | 0.0446 | – | 0.0797 | – | 0.093 | 0.0482 | 0.106 | 0.0473 | 0.0697 | – | 0.108 | – | – | – | –
MGESLFKGPRDYNPISSSICHLTNESDGHTTSLYGIGFGPFIITNKHLFRRNNGTLVVQSLHGVFKVKDTTTLQQHLVDGRDMIIIRMWKDFPPFPQKLKFREPQREERICLVTTNFQTKSMSSMVSDTSCTFPSGDGIFWKHWIQTKDGQCGSPLVSTRDGFIVGIHSASNFTNTNNYFTSVPKNFMELLTNQEAQQWVSGWRLNADSVLWGGHKVFMVKPEEPFQPVKEATQL [P89W] | 0.0674 | – | 0.0669 | 0.0429 | 0.0602 | 0.0427 | – | – | – | – | 0.052 | 0.0703 | 0.045 | – | 0.0718 | – | – | – | 0.0446 | –
MGESLFKGPRDYNPISSSICHLTNESDGHTTSLYGIGFGPFIITNKHLFRRNNGTLVVQSLHGVFKVKDTTTLQQHLVDGRDMIIIRMPKDFPPFPQKLKFREPQREERICLVTTNFQTKSMSSMVSDTSCTFPSGDGIFWKHWIQTKDGQCGSPLVSTRDGFIVGIHSASNFTNTNNYFTSVPKNFMELLTNQEAQQWVSGWRLNADSVLWGGHKVFMVTPEEPFQPVKEATQL [K221T] | 0.0922 | 0.0602 | – | 0.0485 | – | 0.0532 | 0.0634 | 0.0681 | 0.061 | – | 0.0605 | 0.0974 | 0.0541 | 0.0448 | 0.0971 | 0.0754 | – | – | – | –
MGESLFKGPRDYNPISSSICHLTNESDGHTTSLYGIGFGPFIITNKHLFRRNNGTLVVQSLHGVFKVKDTTTLQQHLVDGRDMIIIRMPKDFPPFPQKCKFREPQREERICLVTTNFQTKSMSSMVSDTSCTFPSGDGIFWKHWIQTKDGQCGSPLVSTRDGFIVGIHSASNFTNTNNYFTSVPKNFMELLTNQEAQQWVSGWRLNADSVLWGGHKVFMVKPEEPFQPVKEATQL [L99C] | 0.104 | 0.0767 | 0.0937 | 0.0467 | 0.0637 | 0.0601 | – | 0.0845 | 0.053 | – | 0.0615 | 0.0956 | 0.0642 | 0.0493 | – | 0.0476 | – | – | – | 0.0467
MGESLFKGPRDYNPISSSICHLTNESDGHTTSLYGIGFGPFIITNKHLFRRNNGTLVVQSLHGVFKVKDTTTLQQHLVDGRDMIIIRMPKDFPPFPQKLKFREPQREERICLVTTNFQTKSMSSMVSDTSCTFPSGDGIFWKHWIQTKDLQCGSPLVSTRDGFIVGIHSASNFTNTNNYFTSVPKNFMELLTNQEAQQWVSGWRLNADSVLWGGHKVFMVKPEEPFQPVKEATQL [G150L] | 0.0528 | 0.0581 | 0.0542 | – | 0.0578 | 0.0532 | 0.0583 | 0.0588 | 0.0656 | – | 0.064 | 0.0589 | 0.0588 | 0.0468 | 0.0571 | 0.0641 | 0.062 | – | – | 0.067
MGESLFKGPRDYNPISSSICHLTNESDGHTTSLYGIGFGPFIITNKHLFRRNNGTLVVQSLHGVFKVKDTTTLQQHLVDGRDMIIIRMPKDFPPFPQKLNFREPQREERICLVTTNFQTKSMSSMVSDTSCTFPSGDGIFWKHWIQTKDGQCGSPLVSTRDGFIVGIHSASNFTNTNNYFTSVPKNFMELLTNQEAQQWVSGWRLNADSVLWGGHKVFMVKPEEPFQPVKEATQL [K100N] | 0.106 | 0.0768 | 0.199 | 0.0498 | 0.0873 | 0.0556 | 0.105 | 0.0841 | – | – | 0.0516 | 0.102 | – | 0.059 | 0.12 | 0.0869 | – | – | 0.0636 | –
